Experimental data: the RNAGym collection of RNA variant scans (doi:10.1093/nar/gkz1192)
The source gives no read counts; variants with many changes may rest on few reads.

B1: CPEB3 Ribozyme (parent)
chain: UAACAGGGGGCCACAGCAGAAGCGUUCACGUCGCAGCCCCUGUCAGAUUCUGGUGAAUCUGCGAAUUCUGCUGUAUAUCUC

Variants of: B1
Experiment: self-cleavage, relative activity (ratio to wild type); higher = more cleavage; in vitro, sequencing
How it was run: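 CPEB3 self-cleaving ribozyme mutant libraries were made by rounds of error-prone PCR, barcoded, and transcribed in vitro with T7 RNA polymerase for 5 hours at 37°C. Cleavage occurred during transcription and a 15 min DNase I step before EDTA stop. RNAs were reverse transcribed with template switching and Illumina-sequenced, with DNA sequencing mapping barcodes to variants. Relative activity is the variant's cleaved/total read fraction divided by wild type's (minimum 5 reads), averaged across three batches.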
With A18G U51A U54A A64U U78C the self-cleavage was 0.32.
A18G U51A U54A U60A gave a self-cleavage of 0.24.
In the case of A18G U51A U54C, the self-cleavage is reported as 0.86.
Variant A18G U51A U60C U72C has a self-cleavage of 0.41.
In the case of A18G U51C A56G A75G, the self-cleavage is reported as 0.44.
For A18G U51C A75U, the self-cleavage was 0.8.
For A18G U51C U58C A64U, the self-cleavage was 0.19.
In the case of A18G U51C U58C U72C, the self-cleavage is reported as 0.26.
Variant A18G U51C U69C U80C has a self-cleavage of 1.19.
With A18G U51C U72C the self-cleavage was 0.45.
A18G U51G G52A G53A gave a self-cleavage of 0.97.
A18G U51G U58A showed a self-cleavage of 0.16.
With A18G U54C A65C the self-cleavage was 0.07.
A18G U54C A77G gave a self-cleavage of 0.74.
A18G U54C U67A showed a self-cleavage of 0.2.
A18G U54C U76A gave a self-cleavage of 0.33.
A18G U54G U80A showed a self-cleavage of 0.86.
For A18G U58A A65G U72A U78C, the self-cleavage was 0.11.
A18G U58A U80C showed a self-cleavage of 0.2.
A18G U58C A75U showed a self-cleavage of 0.36.
A18G U58C C59G U80A showed a self-cleavage of 0.14.
Work on A18G U60A A64G yielded a self-cleavage of 0.36.
Work on A18G U60C G61A A77U yielded a self-cleavage of 0.22.
In the case of A18G U60G A77G, the self-cleavage is reported as 0.31.
Work on A18G U66C U76C yielded a self-cleavage of 0.28.
In the case of A18G U66C U78C, the self-cleavage is reported as 0.26.
For A18G U67A U69A, the self-cleavage was 0.22.
A18G U67C A77G showed a self-cleavage of 0.35.
For A18G U67G U72A, the self-cleavage was 0.1.
A18G U67G U80C gave a self-cleavage of 0.22.
In the case of A18G U69A U78C, the self-cleavage is reported as 0.46.
A18G U72A U78C showed a self-cleavage of 0.17.
Work on A18G U72C A77G yielded a self-cleavage of 0.73.
A18G U72C U74C showed a self-cleavage of 0.96.
Variant A18G U74A U76A has a self-cleavage of 1.24.
A18U A20C A35G U43C showed a self-cleavage of 0.24.
For A18U A20C U31C A35U A64U U72G U80C, the self-cleavage was 0.02.
A18U A20G A21G C38A A45C showed a self-cleavage of 0.03.
Variant A18U A20G A28U C32A U60A C62G has a self-cleavage of 0.13.
Work on A18U A20G A35U U60A U66C yielded a self-cleavage of 0.22.
A18U A20G A45C U67C A77U showed a self-cleavage of 0.1.
For A18U A20G A45G A65G U72A, the self-cleavage was 0.12.
With A18U A20G A56G U76C the self-cleavage was 0.44.
A18U A20G A64G showed a self-cleavage of 0.2.
A18U A20G C34U gave a self-cleavage of 0.28.
A18U A20G C34U A47G U48C U51C gave a self-cleavage of 0.19.
With A18U A20G U25C A64G C81U the self-cleavage was 0.07.
In the case of A18U A20G U26A, the self-cleavage is reported as 0.52.
A18U A20G U41A A64G showed a self-cleavage of 0.07.
With A18U A20G U41A G63U C71A U72C the self-cleavage was 0.07.
Work on A18U A20G U41C A56C yielded a self-cleavage of 0.29.
Variant A18U A20G U43C A47G has a self-cleavage of 0.35.
In the case of A18U A20G U51C A77G, the self-cleavage is reported as 0.19.
In the case of A18U A20G U66C A75C, the self-cleavage is reported as 0.15.
A18U A20U A28G A47G U49C U78A gave a self-cleavage of 0.04.
A18U A20U A28G U48C showed a self-cleavage of 0.21.
Variant A18U A20U A28G U78G has a self-cleavage of 0.05.
A18U A20U A47G C68A A75G gave a self-cleavage of 0.11.
In the case of A18U A20U A47G U72C U78G, the self-cleavage is reported as 0.1.
Variant A18U A20U C29A C38A A64G U78A has a self-cleavage of 0.04.
In the case of A18U A20U C29U U72C, the self-cleavage is reported as 0.08.
With A18U A20U C62G the self-cleavage was 0.06.
Variant A18U A20U C62G U78C has a self-cleavage of 0.07.
For A18U A20U G46A A47G A75G, the self-cleavage was 0.1.
With A18U A20U U31C U43C C71G U80A the self-cleavage was 0.05.
Work on A18U A20U U31C U74C yielded a self-cleavage of 0.1.
With A18U A20U U43C the self-cleavage was 0.2.
A18U A20U U67C showed a self-cleavage of 0.11.
In the case of A18U A20U U69C, the self-cleavage is reported as 0.18.
For A18U A20U U72A, the self-cleavage was 0.11.
For A18U A21G A28U A65G U80C, the self-cleavage was 0.07.
A18U A21G A35U C44A U74C showed a self-cleavage of 0.27.
In the case of A18U A21G A47G U60C, the self-cleavage is reported as 0.34.
Work on A18U A21G A56G yielded a self-cleavage of 0.24.
In the case of A18U A21G A64U, the self-cleavage is reported as 0.56.
Variant A18U A21G C38U U58C has a self-cleavage of 0.24.
Work on A18U A21G G33C U43A A45U A77U yielded a self-cleavage of 0.03.
A18U A21G G36A A57U gave a self-cleavage of 0.17.
For A18U A21G G42A, the self-cleavage was 0.07.
In the case of A18U A21G G46U U49C A56G, the self-cleavage is reported as 0.15.
In the case of A18U A21G U25A, the self-cleavage is reported as 0.38.
In the case of A18U A21G U26A C29G A45G U49C A57G, the self-cleavage is reported as 0.02.
Work on A18U A21G U26A U54C yielded a self-cleavage of 0.26.
